# Measured values from PMC7819943, “Rice protein-binding microarrays: a tool to detect cis-acting elements near promoter regions in rice”.
# Some of the results follow.
# Molecular target: T1, OsWOX13 (Oryza sativa, UniProt Q5QMM3 1-267)
# T1 sequence: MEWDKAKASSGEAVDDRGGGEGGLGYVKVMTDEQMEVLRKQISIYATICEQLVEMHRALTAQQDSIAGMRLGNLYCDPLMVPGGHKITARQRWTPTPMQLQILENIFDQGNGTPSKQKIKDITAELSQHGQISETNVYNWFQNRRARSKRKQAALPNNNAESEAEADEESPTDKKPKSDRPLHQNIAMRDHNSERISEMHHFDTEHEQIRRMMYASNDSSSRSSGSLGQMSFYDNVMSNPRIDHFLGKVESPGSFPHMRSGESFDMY
# Assay: protein-binding microarray (RPBM); PBS, 2% BSA, 51.3 ng/ul salmon testes DNA, 50 uM zinc acetate, 200 nM TF, 25 C, 1 h; high values mean tight binding
# Details: protein: recombinant; tags: N-terminal polyhistidine and DsRed monomer fusion (pET32a); label: CyDye5-dUTP incorporated in the synthesized complementary strand; 3' TTTTT single-stranded linker to array surface; dsDNA, one strand shown
# Summary of the method: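 The binding signal is fluorescence intensity per feature, in arbitrary units, read on an Axon 4000B scanner. Polyhistidine- and DsRed-tagged transcription factors (N-terminal fusions) from E. coli BL21-CodonPlus were purified on Ni–NTA and applied at 200 nM for 1 h at 25 °C to a double-stranded, BSA-blocked custom Agilent array in buffer with 50 µM zinc acetate.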
row,Sequence,binding signal
1,AATTTAAATTTAAACAGGATGGCAAACACACCCCATATCCCGGAGTCACCTAGTGCAG,23800 fluorescence intensity (a.u.)
2,CTGGAATGAGTGGTGGTTGATTGTTTAGTGTTTACTGTTCCGGAGTCACCTAGTGCAG,18500 fluorescence intensity (a.u.)
3,TTAATGTAGTTATCAATTTCGTTCATTTGCTTGAATTGGACGGAGTCACCTAGTGCAG,4130 fluorescence intensity (a.u.)
4,TTGCTACCATTCAATCAACATCTGGAGCAGATTACATATGCGGAGTCACCTAGTGCAG,10400 fluorescence intensity (a.u.)
5,GTGTCAATTTTAATAGAATAGAATGGAATCATTGGATACTCGGAGTCACCTAGTGCAG,5620 fluorescence intensity (a.u.)
6,ACGTAAACTGAAATTTACAAAGGGACTATACTCCAGTAATCGGAGTCACCTAGTGCAG,11100 fluorescence intensity (a.u.)
7,AACAATTGACAAACTGATTCTGCTCGCCTCTGTCCCCTTTCGGAGTCACCTAGTGCAG,46800 fluorescence intensity (a.u.)
8,CATGGATGGATTGGATGCTGTTGCTATGGCCGCGAGGTTGCGGAGTCACCTAGTGCAG,4440 fluorescence intensity (a.u.)
9,GGAAATCCCAATTAGTTAATTAAGGGTGTAATTAGCAAACCGGAGTCACCTAGTGCAG,21300 fluorescence intensity (a.u.)
10,AGGGGTTGGTAATTGGCAGGGAATTCCTCCTTTACTTCGCCGGAGTCACCTAGTGCAG,15400 fluorescence intensity (a.u.)
11,GCCCTTGCGGATTGATGAGATCCTCTGCAGTCACTTTACCCGGAGTCACCTAGTGCAG,5400 fluorescence intensity (a.u.)
12,CTTTCTTTGACTGTTGCCTTTTATTTTGTGCAGGTTGTATCGGAGTCACCTAGTGCAG,4690 fluorescence intensity (a.u.)
13,GGATTTAGATTGAGATCTTTGGCACAGCTTAGACTCAACACGGAGTCACCTAGTGCAG,43000 fluorescence intensity (a.u.)
14,TTTCCTAATTAATTATTAGGTATTACAAATGGATTTTGGACGGAGTCACCTAGTGCAG,36900 fluorescence intensity (a.u.)
15,TTAATTGGTTAGATTTCTTGTGGTGAAACCAACCCACATGCGGAGTCACCTAGTGCAG,39500 fluorescence intensity (a.u.)
16,TGGATAATTAAGCTCATGAGACGACAACGAACAATGAATGCGGAGTCACCTAGTGCAG,8610 fluorescence intensity (a.u.)
17,TTGAGATTTACCATTCATTTGTTAAGATTATTCTAGGACGCGGAGTCACCTAGTGCAG,5230 fluorescence intensity (a.u.)
18,ACTTATTGATTTACGCATTTTAAGACAAATTTATGATATTCGGAGTCACCTAGTGCAG,29100 fluorescence intensity (a.u.)
19,GGTAAGCCTAATTATCTAAAGAAATCTCGCAAGGCCCTCTCGGAGTCACCTAGTGCAG,4060 fluorescence intensity (a.u.)
20,TATAATAAATTTATTTTGAATGTATCTATATTCATATTATCGGAGTCACCTAGTGCAG,11200 fluorescence intensity (a.u.)
21,GAAGGTGATTTGTGCGGCATTGAGTTTGGGATCGGAAGAGCGGAGTCACCTAGTGCAG,9710 fluorescence intensity (a.u.)

row,Sequence,binding signal
1,AAAGCAATCATTATCCGAGGTGTCACACCATCCATCCTCTCGGAGTCACCTAGTGCAG,7410 fluorescence intensity (a.u.)
2,ATGATTTGAGCCGCCTGTTTGGTGATGTAACGAGGTCGCTCGGAGTCACCTAGTGCAG,13000 fluorescence intensity (a.u.)
3,GCTCAAATCATAAATTGTTTCAATCTTTTACATACTCTTGCGGAGTCACCTAGTGCAG,15100 fluorescence intensity (a.u.)
4,ATATGTGAAATTAAATTGAAACGAAGTACAGATAGTTAAACGGAGTCACCTAGTGCAG,7160 fluorescence intensity (a.u.)
5,AAAATTTAACCATAACTCATCTATCAATGCCCCTTGGTCACGGAGTCACCTAGTGCAG,3960 fluorescence intensity (a.u.)
6,AGCCTAATTAAGCTGTTATTAGCACATGTGGGTTATTGTACGGAGTCACCTAGTGCAG,22400 fluorescence intensity (a.u.)
7,GGCGATTACCTTGTTAGATTTGTCAGTATATATAAAACTTCGGAGTCACCTAGTGCAG,3640 fluorescence intensity (a.u.)
8,GGGATCATGATGGACAATGGAAACTCCAGCCTGTTTCTCTCGGAGTCACCTAGTGCAG,4690 fluorescence intensity (a.u.)
9,AGTACTAATACTAATAATTAGTTTTATCTCCGAACAGATACGGAGTCACCTAGTGCAG,5950 fluorescence intensity (a.u.)
10,AATTAATCCATGATTAGCCTATGTGATGCTACAGTAAACACGGAGTCACCTAGTGCAG,9000 fluorescence intensity (a.u.)
11,TTACGATGATATATAATTGGACGGAAGCAGCGATCATGCTCGGAGTCACCTAGTGCAG,14100 fluorescence intensity (a.u.)
12,TAAGATAAATTAATTGGTAACCTTGTATGTCCATAAGGGTCGGAGTCACCTAGTGCAG,45400 fluorescence intensity (a.u.)
13,AATCAATTTAAAATAATTTTGCACGTAAATCGGACGCTGACGGAGTCACCTAGTGCAG,17500 fluorescence intensity (a.u.)
14,AATAATTTTGATACAAATATTATCAGTTTATCACTCAAAACGGAGTCACCTAGTGCAG,4050 fluorescence intensity (a.u.)
15,CAGCAAGCCAATTAAGCGAATTAAGCACACATCAATTGACCGGAGTCACCTAGTGCAG,8530 fluorescence intensity (a.u.)
16,GATGGGATTGGGACAAAGATATGAGTGGAGGGTTGAGATGCGGAGTCACCTAGTGCAG,6790 fluorescence intensity (a.u.)
17,ACGGGAATTAAACTGATTTTGATTTTGCGAGAATCCAAACCGGAGTCACCTAGTGCAG,23600 fluorescence intensity (a.u.)
18,TATAAAATTGATGGTTGGAATTATAAATATTTCGATTGAACGGAGTCACCTAGTGCAG,9830 fluorescence intensity (a.u.)
19,GTTGATTAAGAAAACGATTTTGCTATATCTCACTCGAAAGCGGAGTCACCTAGTGCAG,21900 fluorescence intensity (a.u.)
20,TTTTGTTTCTTGATTTGAACAAGTGATGGTAGCTGAGCTGCGGAGTCACCTAGTGCAG,3860 fluorescence intensity (a.u.)
21,TCATTAATTAATTAATTACAGTGGTAGATGATGATGTAGTCGGAGTCACCTAGTGCAG,64000 fluorescence intensity (a.u.)

row,Sequence,binding signal
1,ACCCGTTTCAAATTTGAATTTGAATTATATCTGATTCAATCGGAGTCACCTAGTGCAG,4590 fluorescence intensity (a.u.)
2,AGACCATTTCACCAATCATATCATTTTATTCTTGGTTTCACGGAGTCACCTAGTGCAG,7460 fluorescence intensity (a.u.)
3,GGGATAGGAAAATGATTTTCTACCCACCATAAGACATCTTCGGAGTCACCTAGTGCAG,3680 fluorescence intensity (a.u.)
4,ATAGGTTAGATGATGATGATTATCACGATATTCTACCTCGCGGAGTCACCTAGTGCAG,12000 fluorescence intensity (a.u.)
5,GCATGATTTTAAATCTTACATTAACTTTTGCATATATTCACGGAGTCACCTAGTGCAG,16400 fluorescence intensity (a.u.)
6,CAGGCTACTGTAAATGATCAATCAACCTTTCTAGCTGGCTCGGAGTCACCTAGTGCAG,8630 fluorescence intensity (a.u.)
7,TGTCCATAAATTTGTTCTCATTCTCTGTTTATGGAACAACCGGAGTCACCTAGTGCAG,5830 fluorescence intensity (a.u.)
8,CATCGATTATTTGATAAAAGAATTGTTGACTGAACTACCACGGAGTCACCTAGTGCAG,4420 fluorescence intensity (a.u.)
9,AGTTGAAGATCTAAATTGATATTCATGTACTCCCTCTGTTCGGAGTCACCTAGTGCAG,16800 fluorescence intensity (a.u.)
10,TTGATAAACAGAGGAGACGTGGTGTTGCGATTGTGGGGCTCGGAGTCACCTAGTGCAG,7540 fluorescence intensity (a.u.)
11,TGTATGTCGTTTGTCAAATTGAAACTAATGTTAAGAACGTCGGAGTCACCTAGTGCAG,3230 fluorescence intensity (a.u.)
12,ACATAAATTATCACATAAATCCAAACCCATGAAACACACTCGGAGTCACCTAGTGCAG,10600 fluorescence intensity (a.u.)
13,ACTAACTAAAATTTGGAATAAACATAATAAAATTAAAAGTCGGAGTCACCTAGTGCAG,6360 fluorescence intensity (a.u.)
14,CGGATTGATGGAGTATCTTCTTACTACCTTCTAAAACATACGGAGTCACCTAGTGCAG,29800 fluorescence intensity (a.u.)
15,GGGTTAATTGCATTTGGTCTTGTGGATATGCACGTGATTTCGGAGTCACCTAGTGCAG,36100 fluorescence intensity (a.u.)
16,AATAAATTACAAATTCCGCCTGTAAACATCGAGACAAATACGGAGTCACCTAGTGCAG,21800 fluorescence intensity (a.u.)
17,TATGATTAGCTATAAGTGCTACAGTAACCCACATATGCTACGGAGTCACCTAGTGCAG,45100 fluorescence intensity (a.u.)
18,TGAAATTGGAGGGGCTCCTTTGCTAAATGTGACAATGCGACGGAGTCACCTAGTGCAG,4100 fluorescence intensity (a.u.)
19,CTAATCAGCTAATCAATCTCATCCTCCTCTCTGCAGCAGCCGGAGTCACCTAGTGCAG,16000 fluorescence intensity (a.u.)
20,CCAAAATTAAGTCAATCGGGGAACGTTAAACCTAGCCAATCGGAGTCACCTAGTGCAG,12300 fluorescence intensity (a.u.)
21,AGCTAAATTTGTATCCAGAGGAGAGGAGGGGAAACCTCGGCGGAGTCACCTAGTGCAG,6130 fluorescence intensity (a.u.)

row,Sequence,binding signal
1,TTAATATAAAAGTAATTATTTAAATTGTAGAAACAATTTACGGAGTCACCTAGTGCAG,5710 fluorescence intensity (a.u.)
2,TTAGACCATTAAATTTAATAGAATAGCTTTGGCGTACATTCGGAGTCACCTAGTGCAG,6460 fluorescence intensity (a.u.)
3,ATATGATTATGTGATAATGTTTGAGAGTACAAACAAATGACGGAGTCACCTAGTGCAG,19000 fluorescence intensity (a.u.)
4,GGGATTGAGGATGACATGTGGGGCCCACGTGGCCCCACCACGGAGTCACCTAGTGCAG,3660 fluorescence intensity (a.u.)
5,CCCAATTAATTACAATGGGCCACACGCTCGTGGCCCAACTCGGAGTCACCTAGTGCAG,10900 fluorescence intensity (a.u.)
6,ATCAATAAATTTTAAATTTAGTTTGAAATATTTATTTGGCCGGAGTCACCTAGTGCAG,11000 fluorescence intensity (a.u.)
7,CATTCCAATTGATAGAGGGCTAACCACATTCCAAACATGTCGGAGTCACCTAGTGCAG,7110 fluorescence intensity (a.u.)
8,GATGAATTTATTAATTAGGTCTGTAAACAGTTTACATATGCGGAGTCACCTAGTGCAG,20300 fluorescence intensity (a.u.)
9,ATAATTTGATAAATAAACTAAAATTTTAATAATCTAAGAGCGGAGTCACCTAGTGCAG,23400 fluorescence intensity (a.u.)
10,TTGTAATTTGCCCAACCAAACACTACTTTCCACCAAATGTCGGAGTCACCTAGTGCAG,5040 fluorescence intensity (a.u.)
11,TCCACTAAACTGGTCCGTCACCCTCGCTGCCCGCTCTGAGCGGAGTCACCTAGTGCAG,3670 fluorescence intensity (a.u.)
12,TACACAAATTGCGTGTAAATTGCGAGACGAATCTTTTAAGCGGAGTCACCTAGTGCAG,17900 fluorescence intensity (a.u.)
13,TATATAGGTAATTTGTTGCAACGTTATGTGTGGTGGGGATCGGAGTCACCTAGTGCAG,5500 fluorescence intensity (a.u.)
14,GAGCATAGTATATCACACTATTAGCTCTAAATCATCTATACGGAGTCACCTAGTGCAG,17100 fluorescence intensity (a.u.)
15,AGGTGTGATTATTGTTCTGTTTGGCGCCATTATTATCTAACGGAGTCACCTAGTGCAG,16000 fluorescence intensity (a.u.)
16,ACAAATTGACTAGTAATTATTACGACAAGCGTGTAGGACACGGAGTCACCTAGTGCAG,31500 fluorescence intensity (a.u.)
17,TAGGTAACTATTATATAAATTAGCTATTAAGTTGACTATACGGAGTCACCTAGTGCAG,4340 fluorescence intensity (a.u.)
18,TCTTAATAATCTCTGCAATTTTCGTGTCAAGAAGCAGTACCGGAGTCACCTAGTGCAG,3530 fluorescence intensity (a.u.)
19,TAGTCAATTACCACTTCGTCTCTGCATATGTACGTAAAACCGGAGTCACCTAGTGCAG,16600 fluorescence intensity (a.u.)
20,GAGGTGATTTGCTCTGGTTTTCAGAGAAGGAGGAGGCATTCGGAGTCACCTAGTGCAG,23700 fluorescence intensity (a.u.)
21,GTGTCAGTGATGGAGCGAGTAATTAACTTCCTCAATGTAACGGAGTCACCTAGTGCAG,7740 fluorescence intensity (a.u.)
